The supplement of paper PMC7125110
± gives the standard error. Variants at the floor of the assay are shown more often than the library holds them.

B1: glmS ribozyme (parent)
chain: AUAAAAGCGCCAGAACUACAGAAAUGUAGUUGACGAGGAGGAGGUUUAUCGAAUUUUCGGCGGAUGCCUCCAAA

Legend:
Settings in all cases: with glucosamine-6-phosphate
glucosamine-6-phosphate [1] = variants of: B1; experiment: self-cleavage kobs at 640 uM GlcN6P; higher = faster cleavage; RNA array
In short: (§1)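 Barcoded ribozyme variants on sequenced MiSeq chips were transcribed in situ by E. coli RNA polymerase and followed at 37 °C through a hybridised Cy3 probe. Glucosamine-6-phosphate at 40 μM to 10 mM in HEPES/KCl/Mg(OAc)2 buffer was flowed in, and tiles were imaged over ~14 h. Signals were normalised to baseline and to non-cleaving reference variants, and per-tile medians were fit to one- or two-exponential decays to give kobs. Weighted Michaelis–Menten fits across concentrations gave kcat and KM.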

glucosamine-6-phosphate [2] = variants of: B1; experiment: self-cleavage kobs at 160 uM GlcN6P; higher = faster cleavage; RNA array
In short: as §1

glucosamine-6-phosphate [3] = variants of: B1; experiment: self-cleavage kobs at 2500 uM GlcN6P; higher = faster cleavage; RNA array
In short: as §1

glucosamine-6-phosphate [4] = variants of: B1; experiment: self-cleavage kobs at 10000 uM GlcN6P; higher = faster cleavage; RNA array
In short: as §1

Variant	self-cleavage kobs at 640 uM GlcN6P (glucosamine-6-phosphate [1])	self-cleavage kobs at 160 uM GlcN6P (glucosamine-6-phosphate [2])	self-cleavage kobs at 2500 uM GlcN6P (glucosamine-6-phosphate [3])	self-cleavage kobs at 10000 uM GlcN6P (glucosamine-6-phosphate [4])
G29U U30G G32C G41U U49C C58U G62A	< 1e-05 s⁻¹	< 1e-05 s⁻¹	< 1e-05 s⁻¹	–
G29U U69G	7.49e-05 ± 1.7e-05 s⁻¹	5.79e-05 ± 1.4e-05 s⁻¹	5.06e-05 ± 1.2e-05 s⁻¹	–
U30A C70G C71U	5.91e-05 ± 2.5e-05 s⁻¹	–	8.51e-05 ± 2.9e-05 s⁻¹	–
U30A G32U A42U U45C	< 1e-05 s⁻¹	–	< 1e-05 s⁻¹	–
U30A G35C	< 1e-05 s⁻¹	< 1e-05 s⁻¹	< 1e-05 s⁻¹	< 1e-05 s⁻¹
U30A U45C G59A	< 1e-05 s⁻¹	–	–	–
U30A U49C U57C	< 1e-05 s⁻¹	–	–	–
U30C A33G A36C G62C	< 1e-05 s⁻¹	–	–	–
U30C A33U G60C A64U C70U	< 1e-05 s⁻¹	–	–	–
U30C A36U	< 1e-05 s⁻¹	< 1e-05 s⁻¹	–	< 1e-05 s⁻¹
U30C A42C C67U	< 1e-05 s⁻¹	< 1e-05 s⁻¹	< 1e-05 s⁻¹	< 1e-05 s⁻¹
U30C G32U U47A	0.000115 ± 3.3e-05 s⁻¹	–	0.000106 ± 3e-05 s⁻¹	–
U30C G35C A48U U54C	< 1e-05 s⁻¹	–	< 1e-05 s⁻¹	–
U30C G37A A53C U55G	< 1e-05 s⁻¹	< 1e-05 s⁻¹	–	–
U30C G37C G62A	< 1e-05 s⁻¹	< 1e-05 s⁻¹	–	–
U30C G37U C58A C68G	7.09e-05 ± 2.2e-05 s⁻¹	–	0.000165 ± 3.6e-05 s⁻¹	–
U30C G44U C67U U69A	< 1e-05 s⁻¹	–	–	–
U30C U31C G38C	< 1e-05 s⁻¹	–	< 1e-05 s⁻¹	–
U30C U46G U57C	< 1e-05 s⁻¹	–	–	–
U30G A33G	< 1e-05 s⁻¹	–	–	< 1e-05 s⁻¹
U30G A36G U46A C68U	< 1e-05 s⁻¹	–	–	–
U30G A36U U46C U49A C58A	< 1e-05 s⁻¹	< 1e-05 s⁻¹	–	–

Variant	self-cleavage kobs at 640 uM GlcN6P (glucosamine-6-phosphate [1])	self-cleavage kobs at 160 uM GlcN6P (glucosamine-6-phosphate [2])	self-cleavage kobs at 2500 uM GlcN6P (glucosamine-6-phosphate [3])	self-cleavage kobs at 10000 uM GlcN6P (glucosamine-6-phosphate [4])
U30G A39U U45G	0.000324 ± 5.9e-05 s⁻¹	–	0.00055 ± 0.0001 s⁻¹	0.0014 ± 0.00018 s⁻¹
U30G A42C U54C G62A	< 1e-05 s⁻¹	–	–	< 1e-05 s⁻¹
U30G A53C	0.000512 ± 0.0001 s⁻¹	0.000159 ± 6.4e-05 s⁻¹	0.00138 ± 0.00034 s⁻¹	0.00177 ± 0.00022 s⁻¹
U30G C34A C68A	< 1e-05 s⁻¹	–	–	–
U30G G32A A48G G62C	< 1e-05 s⁻¹	< 1e-05 s⁻¹	< 1e-05 s⁻¹	–
U30G G35A G41C A53C U55C U56G C67U	< 1e-05 s⁻¹	–	< 1e-05 s⁻¹	–
U30G G38U U45G A48U U57A	< 1e-05 s⁻¹	–	–	–
U30G G41U C58A C67G	< 1e-05 s⁻¹	–	–	–
U30G U69A	4.5e-05 ± 1.1e-05 s⁻¹	3.45e-05 ± 1.7e-05 s⁻¹	0.00013 ± 2e-05 s⁻¹	6.73e-05 ± 1.4e-05 s⁻¹
U31A A33U G44U U69C	< 1e-05 s⁻¹	–	–	–
U31A A36C U65A	< 1e-05 s⁻¹	–	< 1e-05 s⁻¹	–
U31A C34U G35C C58U	< 1e-05 s⁻¹	–	–	–
U31A C34U G51U	< 1e-05 s⁻¹	–	< 1e-05 s⁻¹	–
U31A C58G A64C C68U	0.00011 ± 3.5e-05 s⁻¹	–	8.36e-05 ± 2.2e-05 s⁻¹	–
U31A G32A	0.000222 ± 3.2e-05 s⁻¹	6.66e-05 ± 1.2e-05 s⁻¹	0.000381 ± 7.7e-05 s⁻¹	0.0014 ± 0.00017 s⁻¹
U31A G32A G59U G62A	< 1e-05 s⁻¹	–	–	–
U31A G35U U65C G66U	< 1e-05 s⁻¹	–	< 1e-05 s⁻¹	< 1e-05 s⁻¹
U31A G38U	< 1e-05 s⁻¹	< 1e-05 s⁻¹	< 1e-05 s⁻¹	< 1e-05 s⁻¹
U31A G62C C71U	< 1e-05 s⁻¹	< 1e-05 s⁻¹	–	–
U31C A39G U45C C50U	< 1e-05 s⁻¹	–	< 1e-05 s⁻¹	–
U31C C34U	< 1e-05 s⁻¹	–	< 1e-05 s⁻¹	< 1e-05 s⁻¹
U31C G32C G43C U49C G62U C68A	< 1e-05 s⁻¹	–	–	–

Variant	self-cleavage kobs at 640 uM GlcN6P (glucosamine-6-phosphate [1])	self-cleavage kobs at 160 uM GlcN6P (glucosamine-6-phosphate [2])	self-cleavage kobs at 2500 uM GlcN6P (glucosamine-6-phosphate [3])	self-cleavage kobs at 10000 uM GlcN6P (glucosamine-6-phosphate [4])
U31C G35C	< 1e-05 s⁻¹	< 1e-05 s⁻¹	< 1e-05 s⁻¹	< 1e-05 s⁻¹
U31C G43U G62U	< 1e-05 s⁻¹	–	< 1e-05 s⁻¹	–
U31C U45A C67A	0.000203 ± 4.8e-05 s⁻¹	0.000102 ± 3e-05 s⁻¹	0.000723 ± 0.00023 s⁻¹	–
U31C U45C G60C G63U	< 1e-05 s⁻¹	< 1e-05 s⁻¹	< 1e-05 s⁻¹	–
U31G A48C G59C	< 1e-05 s⁻¹	–	–	–
U31G C34G U47C G63U	< 1e-05 s⁻¹	–	< 1e-05 s⁻¹	–
U31G G35C C68G	< 1e-05 s⁻¹	–	–	–
U31G G35U G60U C71U	< 1e-05 s⁻¹	< 1e-05 s⁻¹	–	–
U31G G40C C61A	< 1e-05 s⁻¹	< 1e-05 s⁻¹	< 1e-05 s⁻¹	–
U31G G41U G51U C71A	< 1e-05 s⁻¹	–	< 1e-05 s⁻¹	–
U31G U56G C67U	0.000176 ± 5.1e-05 s⁻¹	8.73e-05 ± 3.2e-05 s⁻¹	0.000493 ± 0.00014 s⁻¹	0.00086 ± 0.00015 s⁻¹
G32A A33G C34G A39C G60A	< 1e-05 s⁻¹	–	–	–
G32A A42U	< 1e-05 s⁻¹	< 1e-05 s⁻¹	–	–
G32A A53C C58U C71A	< 1e-05 s⁻¹	–	–	–
G32A A53C C71U	7.17e-05 ± 2.3e-05 s⁻¹	3.67e-05 ± 1.6e-05 s⁻¹	0.000197 ± 4.7e-05 s⁻¹	–
G32A G35C G41C G51C	< 1e-05 s⁻¹	–	< 1e-05 s⁻¹	–
G32A G37C G51U A53C	< 1e-05 s⁻¹	–	–	–
G32A G38C A48U C61U	< 1e-05 s⁻¹	< 1e-05 s⁻¹	< 1e-05 s⁻¹	< 1e-05 s⁻¹
G32A G40A U47A G63U	< 1e-05 s⁻¹	–	< 1e-05 s⁻¹	–
G32A G41C U55G G66C	< 1e-05 s⁻¹	–	–	–
G32A G44U A53C	< 1e-05 s⁻¹	–	< 1e-05 s⁻¹	–
G32A G63C	< 1e-05 s⁻¹	< 1e-05 s⁻¹	< 1e-05 s⁻¹	< 1e-05 s⁻¹

Variant	self-cleavage kobs at 640 uM GlcN6P (glucosamine-6-phosphate [1])	self-cleavage kobs at 160 uM GlcN6P (glucosamine-6-phosphate [2])	self-cleavage kobs at 2500 uM GlcN6P (glucosamine-6-phosphate [3])	self-cleavage kobs at 10000 uM GlcN6P (glucosamine-6-phosphate [4])
G32A G66U	4.96e-05 ± 1.7e-05 s⁻¹	–	5.52e-05 ± 1.1e-05 s⁻¹	0.000118 ± 1.6e-05 s⁻¹
G32A G66U C68G	0.000111 ± 3.9e-05 s⁻¹	–	–	–
G32A U57A C70G	0.000649 ± 0.00023 s⁻¹	–	–	–
G32A U65A	5.66e-05 ± 1.2e-05 s⁻¹	–	0.000104 ± 1.4e-05 s⁻¹	0.000243 ± 4.4e-05 s⁻¹
G32C A33G A42U U45G U57C A64C C71A	< 1e-05 s⁻¹	–	< 1e-05 s⁻¹	–
G32C A39C A42U A64G U65C	< 1e-05 s⁻¹	–	< 1e-05 s⁻¹	< 1e-05 s⁻¹
G32C A42U A53G U57A A64G	< 1e-05 s⁻¹	–	< 1e-05 s⁻¹	–
G32C C50U U65C	< 1e-05 s⁻¹	–	< 1e-05 s⁻¹	–
G32C G35A C68A	< 1e-05 s⁻¹	–	< 1e-05 s⁻¹	–
G32C G35U C50A U56A	< 1e-05 s⁻¹	–	–	–
G32C G38U G62A	< 1e-05 s⁻¹	–	–	–
G32C G40A U56C C70U	< 1e-05 s⁻¹	–	< 1e-05 s⁻¹	–
G32C G43C G60U	< 1e-05 s⁻¹	< 1e-05 s⁻¹	–	–
G32C G43U U45G	< 1e-05 s⁻¹	–	–	–
G32C U45G A48U C68G C71U	< 1e-05 s⁻¹	–	< 1e-05 s⁻¹	–
G32U A33C C68U	< 1e-05 s⁻¹	–	< 1e-05 s⁻¹	< 1e-05 s⁻¹
G32U A42U A53G	< 1e-05 s⁻¹	< 1e-05 s⁻¹	–	–
G32U A42U G62C C68G	< 1e-05 s⁻¹	–	–	–
G32U A64G	0.000178 ± 2.3e-05 s⁻¹	4.19e-05 ± 1.1e-05 s⁻¹	0.00034 ± 4.6e-05 s⁻¹	0.000774 ± 0.00011 s⁻¹
G32U G35A A42C	< 1e-05 s⁻¹	< 1e-05 s⁻¹	–	–
G32U G37C	< 1e-05 s⁻¹	–	–	< 1e-05 s⁻¹
G32U G40C G43C	< 1e-05 s⁻¹	–	< 1e-05 s⁻¹	–

Variant	self-cleavage kobs at 640 uM GlcN6P (glucosamine-6-phosphate [1])	self-cleavage kobs at 160 uM GlcN6P (glucosamine-6-phosphate [2])	self-cleavage kobs at 2500 uM GlcN6P (glucosamine-6-phosphate [3])	self-cleavage kobs at 10000 uM GlcN6P (glucosamine-6-phosphate [4])
G32U G41C U65G	< 1e-05 s⁻¹	–	< 1e-05 s⁻¹	–
G32U G44U G51U C70U	< 1e-05 s⁻¹	< 1e-05 s⁻¹	< 1e-05 s⁻¹	–
G32U U47A U56A C68U C70A	< 1e-05 s⁻¹	–	< 1e-05 s⁻¹	–
A33C A36U A39U	< 1e-05 s⁻¹	–	–	–
A33C A39C G43U G51C	< 1e-05 s⁻¹	–	–	–
A33C C34A U65C C67U	< 1e-05 s⁻¹	–	–	–
A33C G35A U46A	< 1e-05 s⁻¹	–	–	–
A33C G37C C58A G60U	< 1e-05 s⁻¹	–	< 1e-05 s⁻¹	–
A33C G38C A53U A64U	< 1e-05 s⁻¹	–	< 1e-05 s⁻¹	–
A33C G41U U65G	< 1e-05 s⁻¹	–	< 1e-05 s⁻¹	–
A33C G44U C67U	< 1e-05 s⁻¹	–	< 1e-05 s⁻¹	< 1e-05 s⁻¹
A33C G62U A64C	< 1e-05 s⁻¹	–	< 1e-05 s⁻¹	–
A33G A39C	< 1e-05 s⁻¹	< 1e-05 s⁻¹	< 1e-05 s⁻¹	< 1e-05 s⁻¹
A33G A39G G41A	< 1e-05 s⁻¹	–	–	–
A33G G35C C61U C67G	< 1e-05 s⁻¹	–	–	–
A33G G40A G60A C61A C70U	< 1e-05 s⁻¹	–	< 1e-05 s⁻¹	–
A33G G41C	< 1e-05 s⁻¹	–	< 1e-05 s⁻¹	–
A33G G44U C61U C67G	< 1e-05 s⁻¹	–	< 1e-05 s⁻¹	–
A33G G62U U65A	< 1e-05 s⁻¹	–	< 1e-05 s⁻¹	–
A33G G66U	< 1e-05 s⁻¹	< 1e-05 s⁻¹	< 1e-05 s⁻¹	–
A33G U54G	< 1e-05 s⁻¹	< 1e-05 s⁻¹	–	< 1e-05 s⁻¹
A33U A36G A64G	< 1e-05 s⁻¹	< 1e-05 s⁻¹	< 1e-05 s⁻¹	–
